Reference: the supplement of paper PMC3334620
Whole data set: some 33,000 sequences, median “E-score (-0.5 to 0.5)” near -0.016, cut for the highest 2% near 0.32. The list shows a part of the results.

The sequences below were run against T1, Stp1 (UniProt B3LFK1) (assay: PBM E-score (8-mer binding enrichment) (E-score (-0.5 to 0.5)); higher = stronger / more preferred TF binding; most listed sequences are background and not binding sites). Conditions: protein concentration: 200 nM; construct: GST-full length.
T1 sequence: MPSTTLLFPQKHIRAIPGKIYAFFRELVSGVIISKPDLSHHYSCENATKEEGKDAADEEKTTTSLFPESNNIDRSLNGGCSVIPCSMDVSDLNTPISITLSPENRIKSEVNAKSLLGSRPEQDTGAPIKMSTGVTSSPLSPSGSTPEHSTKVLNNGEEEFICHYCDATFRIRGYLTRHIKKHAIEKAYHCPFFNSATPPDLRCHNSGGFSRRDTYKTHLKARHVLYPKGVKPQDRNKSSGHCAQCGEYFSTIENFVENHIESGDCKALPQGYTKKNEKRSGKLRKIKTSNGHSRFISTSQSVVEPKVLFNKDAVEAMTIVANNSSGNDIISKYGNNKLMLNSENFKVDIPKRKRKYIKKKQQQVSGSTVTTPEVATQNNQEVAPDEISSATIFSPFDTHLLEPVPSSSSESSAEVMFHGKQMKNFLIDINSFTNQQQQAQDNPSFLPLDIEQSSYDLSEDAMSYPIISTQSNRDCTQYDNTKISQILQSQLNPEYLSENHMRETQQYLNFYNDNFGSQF
Description: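 Universal 'all 10-mer' protein binding microarrays (Agilent AMADID 015681) probed with GST-tagged S. cerevisiae TFs (full-length or DBD) made by in vitro transcription/translation (PURExpress), about 100-200 nM. Bound TF was detected with fluorescent anti-GST. Each ungapped 8-mer (which stands for itself and its reverse complement) is scored by the PBM enrichment score (E-score), a modified Wilcoxon-Mann-Whitney statistic from -0.5 to +0.5, computed with the Universal PBM Analysis Suite. Scale: above 0.35 generally sequence-specific binding.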

| Sequence | PBM E-score |
| --- | --- |
| TCCACGCA | 0.0184 |
| ACGTGACG | -0.0358 |
| CTAGCAAC | -0.0374 |
| GGACGCAC | -0.105 |
| GTAGAATA | 0.204 |
| GAGTCCGC | -0.0713 |
| TAGATGGA | -0.0885 |
| CACGGAAA | 0.27 |
| ATCACAAT | -0.0368 |
| ATTCCGCG | 0.103 |
| ACTACCGA | -0.163 |
| CTGCCTGA | -0.0731 |
| AATATGAA | 0.0785 |
| AAGCCAGA | -0.0844 |
| AACCTAAT | -0.0832 |
| CAGCTCGG | -0.179 |
| ACACGAAT | 0.117 |
| GTATCGGA | -0.0517 |
| AAACGGTA | 0.166 |
| CTCTCTGC | -0.125 |
| ACCCACGT | -0.0313 |
| CACCTTAG | -0.229 |
| ATCGTCAA | 0.0655 |
| ATCGTTGA | -0.0862 |
| AGCATTAG | -0.147 |

| Sequence | PBM E-score |
| --- | --- |
| ATGACGAG | -0.0436 |
| ATAAATGG | 0.0779 |
| CGGGATTA | 0.0374 |
| ACGGACTC | -0.0205 |
| GCAACCCC | -0.222 |
| ACTGAGAA | 0.0362 |
| GCTCTTTA | -0.0143 |
| ACATTTAT | -0.013 |
| AAGATTGA | 0.0691 |
| GAAATGTC | -0.143 |
| AGTAAATC | -0.00855 |
| GGATAAGA | -0.0166 |
| AACACGCC | 0.2 |
| GAATAGTA | 0.0764 |
| CGTATCCA | -0.195 |
| CAAACCCA | -0.138 |
| GAGCGACC | -0.159 |
| CTAAGAAG | -0.0366 |
| CACTCCCG | -0.188 |
| CGGACAAG | 0.117 |
| CCACCGAA | 0.0847 |
| ATTCATGA | 0.123 |
| ATCAAAGG | 0.00439 |
| ATGAGACC | -0.148 |
| CAAGGGCA | -0.00665 |

| Sequence | PBM E-score |
| --- | --- |
| ACGCCATC | 0.142 |
| ACATGGTA | 0.0943 |
| AATTATCC | -0.00926 |
| TACATTAA | 0.2 |
| AGATTTAG | 0.136 |
| CTCTTGTC | 0.0264 |
| GCGGGCCA | -0.167 |
| ATGGCCAA | -0.182 |
| GTGTAATA | 0.0143 |
| CTCGTTGC | 0.188 |
| CCATTATA | 0.101 |
| ATGGTTTA | 0.0423 |
| TGTGTTAA | 0.0919 |
| ACCCGAGG | -0.0899 |
| AGCGAGGG | -0.245 |
| AGTGCGAC | -0.0365 |
| CGAAAGAA | -0.0748 |
| TACTGGGA | -0.136 |
| AACAGAAA | 0.113 |
| ACGATGGC | -0.00112 |
| CGTCTTGA | 0.109 |
| CTATGACA | -0.0378 |
| GCAGGAAC | -0.139 |
| CATGCCGG | 0.186 |
| ATACATGC | 0.0364 |

| Sequence | PBM E-score |
| --- | --- |
| CGCGTTCA | 0.22 |
| GTACAACA | 0.203 |
| GTACACAA | 0.0963 |
| ATCGCGCG | 0.235 |
| ACCGAAGC | -0.104 |
| ACGAAGGC | -0.134 |
| ACGCCTCT | 0.0123 |
| CGCCGATA | 0.245 |
| CGAGCCTC | -0.073 |
| CCGCAGGA | 0.0329 |
| GCCAGCCC | -0.231 |
| CCATGGAC | -0.0829 |
| CCGTAAAC | 0.105 |
| ACAGAAGT | 0.0374 |
| ATCGATCA | -0.128 |
| TCACCTGA | -0.244 |
| GATCATCA | -0.241 |
| AGGCGACC | -0.0722 |
| CTTGACAA | 0.0969 |
| GAGGCGAA | 0.206 |
| CGAGGGTC | -0.345 |
| AATTTGCG | 0.167 |
| GCTGTACA | -0.094 |
| GAACATTC | -0.0495 |
| ATGTGGGA | -0.235 |

| Sequence | PBM E-score |
| --- | --- |
| ACTGGAAA | -0.0371 |
| CACTGGAA | -0.17 |
| ATTCTTTC | 0.0215 |
| GAGCGAGA | 0.16 |
| AAGCTCGT | -0.174 |
| GACAAGCA | 0.0122 |
| ACATTAGG | -0.189 |
| GGCCTGAC | -0.165 |
| CTCTCCTA | -0.0265 |
| AACATACG | 0.25 |
| ATTTGCCG | 0.335 |
| CGAATGTC | -0.17 |
| AGTGCTTG | -0.0109 |
| AATGCCCG | 0.0121 |
| AAGCACCA | -0.279 |
| ACCAATAG | -0.151 |
| CCTCTGCC | -0.191 |
| ACCTTACC | 0.0147 |
| CCGCTAGC | -0.325 |
| TAGCAACA | 0.112 |
| GGACGCGA | -0.16 |
| AGCTGTAT | -0.135 |
| AACAGCGA | -0.106 |
| ATGAACAA | 0.17 |
| AATAGGCA | 0.27 |

| Sequence | PBM E-score |
| --- | --- |
| GAGGCTAC | -0.155 |
| CGAGTTTC | -0.0593 |
| ACGGCGTG | 0.455 |
| AGTGGTTG | 0.0881 |
| GAAGGACC | -0.275 |
| GAATAGCC | -0.037 |
| CTTAGTAA | 0.0528 |
| GTTATGGA | 0.233 |
| TCTTAAAA | 0.0254 |
| AAAGGTCG | -0.326 |
| CTTACGTC | -0.116 |
| TCATTAAA | 0.263 |
| ACTGTAGG | 0.188 |
| ACGAAGGA | -0.0434 |
| CACTCCGA | -0.0238 |
| ACTCTACA | 0.0306 |
| AGCACGCT | -0.227 |
| TCCATGCA | 0.206 |
| ATAACTCG | 0.0833 |
| GTTATAAC | 0.104 |
| CCCAAGAA | 0.0548 |
| AATGCGAA | 0.0224 |
| GTACGTAA | 0.0741 |
| AACAGAGT | -0.0273 |
| ACCTTACT | 0.0341 |

| Sequence | PBM E-score |
| --- | --- |
| TAAGGCGA | 0.315 |
| GATGGATA | 0.00148 |
| GGTAAACC | -0.139 |
| GCCATAAA | 0.117 |
| AATCCAAT | 0.117 |
| ACCCCTGG | -0.349 |
| CCATACAG | -0.193 |
| ACTATAGA | 0.0307 |
| AGCGGCAA | 0.321 |
| GAGCCCCA | -0.16 |
| AATTGAAC | -0.0925 |
| ACTCACTC | -0.0319 |
| CAGCAAGC | -0.329 |
| CACCACTC | 0.153 |
| ACCACCGG | -0.134 |
| GTCACGCA | -0.0363 |
| AGTTCAAG | 0.138 |
| ACCATCTA | -0.142 |
| GCCTATGA | -0.119 |
| ATGTCTCG | -0.204 |
| AGAACCTA | -0.109 |
| CATTTGCA | 0.0573 |
